Structures are written as SMILES. Hit rate of the full screen: of about 5,400 compounds, about 190 (3.5%) showed an effect of 50% or more. Some of the results follow.

The results in this text go back to PMC13083723 (Patterns, 2026).

This experiment has as its system Vero-E6. The experiment is described as follows: primary screen, phospholipidosis by LipidTOX staining; higher = more effect of the substance. The note with it: 10 µM. An outline of the steps: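 Single-concentration screen at 10 μM, with DMSO 0.1 v/v % and amiodarone 10 μM as controls. Read-out is LipidTOX Red phospholipid staining, which tolerates aldehyde fixation, in Vero-E6 cells.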
As for `C[C@H](N)Cn1ccc2cc(F)c(Cl)cc21`, the result_ITMP stood at 50.7%. Turning to `COc1cc(C(=S)N2CCOCC2)ccc1O`, the result_ITMP is listed as -1.12%. As for `O=C1OC(c2ccc(O)cc2)(c2ccc(O)cc2)c2ccccc21`, the figure is -3.7%; as for `C[C@H](Nc1ncnc2[nH]cnc12)c1cc2ccc(F)cc2nc1-c1ccccn1` [R4A_0002240_001 / SPE_K21077415], -0.96%; as for `CNc1cc2c(Nc3cccc(Br)c3)ncnc2cn1`, -7.32%. As for `CCCc1ncc(C[n+]2ccccc2C)c(N)n1`, the figure is -2.82%. For `O=C1NC(=O)/C(=C/c2ccc3nccc(-c4ccncc4)c3c2)S1`, the result_ITMP is listed as -4.06%. Consider `Cc1c(C)c2c(c(C)c1OC(=O)CCC(=O)OCCOCCOCCOCCOCCOCCOCCOCCOCCOCCOCCOCCOCCOCCOCCOCCOCCOCCOCCOCCOCCOCCO)CCC(C)(CCCC(C)CCCC(C)CCCC(C)C)O2` (stereo not shown), for which the result_ITMP is recorded as -2.89%. For `CN1Cc2c(C(=O)OC(C)(C)C)ncn2-c2ccsc2C1=O` the value was -0.6%; for `C[C@]12CCC(=O)C=C1C=CC1C2CC[C@@]2(C)C1CC[C@@]2(O)CCC(=O)[O-]` (stereo partly shown), -3.36%; for `CC1(C)S[C@@H]2[C@H](NC(=O)[C@H](NC(=O)N3CCN(S(C)(=O)=O)C3=O)c3ccccc3)C(=O)N2[C@H]1C(=O)[O-]`, -2.91%.

On to `O=C(O)c1ccc(/C=C2\SC(=S)N(c3cccc(C(F)(F)F)c3)C2=O)cc1`, for which the result_ITMP is 0.16%. Take `N=C(N)Nc1ccc2[nH]c3c(c2c1)C[C@@]1(O)C2Cc4ccc(O)c5c4[C@@]1(CCN2CC1CC1)[C@H]3O5`: the result_ITMP was -0.46%. As for `N#C/C(=C\c1ccc(O)c(O)c1)C(=O)Nc1ccccc1`, the figure is 3.7%. As for `COc1cc(-n2cnc3cc(-c4ccc(Cl)cc4)sc3c2=O)ccc1OCCN1CCCC1`, the figure is 28%. Take `O=CN1CCC(C(=O)NCCN2CCC(=C3c4ccccc4C=Cc4ccccc43)CC2)CC1`: the result_ITMP worked out at 46.9%. For `CN1C(=O)COc2c(C(=O)NC3CN4CCC3CC4)cc(Cl)cc21` (stereo not shown) the value was -4.31%; for `O=c1ccc2c(OCCCCOc3ccccc3)c3ccoc3cc2o1`, -1.22%. For `CC(=O)OCC(=O)NCCCOc1cccc(CN2CCCCC2)c1` the value was -8.47%. For `CCCCCCCCC(=O)N[C@H](CN1CCCC1)[C@H](O)c1ccc2c(c1)OCCO2` the value was 63.4%; for `CCn1cc(C(=O)O)c(=O)c2cc(F)c(N3CCNCC3)nc21`, -7.56%.

As to `C[C@H](NCc1ccc(OCc2cccc(F)c2)cc1)C(N)=O`, the result_ITMP was found to be 16%. As for `O=C(Oc1ccc([N+](=O)[O-])cc1)N1CCC(C(O)(c2ccc3c(c2)OCO3)c2ccc3c(c2)OCO3)CC1`, the figure is -11.8%; as for `CCCCN1[C@@H]2CC[C@H]1C[C@@H](OC(c1ccc(F)cc1)c1ccc(F)cc1)C2`, 51.4%.

Turning to `Cc1ccc(C(=O)Nc2ccc(CN3CCN(C)CC3)c(C(F)(F)F)c2)cc1C#Cc1cnc2[nH]ncc2c1`, the result_ITMP is 6.57%.

For `O=C(Nc1ccc(S(=O)(=O)Nc2ccccc2Cl)c(Cl)c1)c1ccccn1`, the result_ITMP is 0.99%.

With `C[C@@H]([C@@H](O)c1ccc(O)cc1)N1CCC(O)(c2ccccc2)CC1`, the result_ITMP is -7%. As for `C[C@@H]1CCO[C@H]2Cn3cc(C(=O)NCc4ccc(F)cc4F)c(=O)c(O)c3C(=O)N12`, the figure is -4.23%; as for `Oc1ccc(-c2nc(-c3ccc(F)cc3)c(-c3ccncc3)[nH]2)cc1`, -1.56%; as for `N#CCc1ccccc1C#Cc1ccc(CCC(=O)O)c(F)c1`, -8.03%. With `COc1ccc(C(=O)/C(Cc2cc(OC)c(OC)c(OC)c2)=C(\C(=O)[O-])c2ccc3c(c2)OCO3)cc1`, the result_ITMP is recorded as -3.57%. As for `CCCCCCCC(=O)OCC(O)CO` (stereo not shown), the figure is -6.16%; as for `Cc1cc(-c2ccc(/N=N/c3ccc4c(S(=O)(=O)[O-])cc(S(=O)(=O)[O-])c(N)c4c3O)c(C)c2)ccc1/N=N/c1ccc2c(S(=O)(=O)[O-])cc(S(=O)(=O)[O-])c(N)c2c1O`, 10.1%. For `Cc1ccc(-c2ncc[nH]2)cc1NC(=O)c1ccc(OCc2ccccn2)cc1` the value was 4.64%; for `O=C(NC[C@H](O)CO)c1ccncc1Nc1ccc(I)cc1F`, 1.33%. As for `O=C(O)c1ccc2cc(-c3ccc(O)c(C45CC6CC(CC(C6)C4)C5)c3)ccc2c1`, the figure is -9.79%; as for `COc1ccc2c(c1)[C@]13CCCC[C@@H]1[C@H](C2)N(C)CC3`, 7.4%. Turning to `Cc1ccc(-n2nc(C(C)(C)C)cc2NC(=O)NCc2cc(F)ccc2Oc2ccc3c(cnn3CCO)c2)cc1`, the result_ITMP is recorded as 6.1%. For `CN(C)C(=O)n1nnnc1Cc1ccc(-c2ccccc2)cc1` the value was 9.23%.

For `CCOc1cc(C(=O)Nc2ccc(Cl)c(-c3nc4ccccc4[nH]3)c2)cc(OCC)c1OCC`, the result_ITMP is listed as 1.65%.

For `Cc1cc(N2CCOCC2)cc2nc(-c3c(NC[C@@H](O)c4cccc(Cl)c4)cc[nH]c3=O)[nH]c12`, the result_ITMP was -0.86%. On to `CC1NC(=O)C(N)CNC(=O)C(C2CCNC(=N)N2)NC(=O)/C(=C\NC(N)=O)NC(=O)C(CNC(=O)CC(N)CCCN)NC1=O` (stereo not shown), for which the result_ITMP turned out to be 6.88%. As for `CC[C@H](C)[C@H](NC(=O)[C@H](Cc1ccc(O)cc1)NC(=O)[C@@H](NC(=O)[C@H](CCCNC(=N)N)NC(=O)[C@@H](N)CC(=O)O)C(C)C)C(=O)N[C@@H](Cc1c[nH]cn1)C(=O)N1CCC[C@H]1C(=O)O`, the figure is -0.26%; as for `O=c1n(CCCN2CCN(c3cccc(Cl)c3)CC2)nc2ccccn12`, -2.31%; as for `CC(=O)NCCCCCC(=O)O`, -2.37%. For `O=C(O)c1cc(=O)[nH]c(=O)[nH]1` the value was -6.85%; for `Cc1ccccc1C(C(=O)NC1CCCCC1)N(C(=O)Cn1ccnc1C)c1cccc(F)c1` (stereo not shown), -6.57%.

Take `COc1ccc2cc([C@H](C)C(=O)O)ccc2c1`: the result_ITMP is -1.35%. As for `N#Cc1cc(CN2CCC(Nc3ncnc4sc(Cl)cc34)CC2)ccc1F`, the result_ITMP stood at 18.7%.

For `O=C(O)/C=C1\CCCc2ccccc2C1O` (stereo not shown), the result_ITMP was -0.78%.

`COc1cc(/C=C2\CCCN([C@@H](C)c3ccc(F)cc3)C2=O)ccc1-n1cnc(C)c1`: the result_ITMP is 3.14%. With `C[C@]12CCC(=O)C=C1[C@@H]1C[C@@H]1[C@H]1[C@@H]3[C@@H]4C[C@@H]4[C@@]4(CCC(=O)O4)[C@@]3(C)CC[C@@H]12`, the result_ITMP turned out to be 7.83%.
